Test results published in the supplement of paper PMC9151546.
Repeats are few or missing, and single values can be far off.

Tests used:
CHO-K1 [1] = test: micronucleus frequency (% of nucleated events); higher = more micronuclei (genotoxic)
CHO-K1 [2] = test: relative survival (nuclei to bead ratio vs DMSO control) (% of vehicle control); higher = more surviving cells
Experimental: (§1)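 Flow-cytometric in vitro micronucleus assay (Litron MicroFlow) in CHO-K1 cells in 96-well plates, 19 concentrations (4.5-200 µM, n=1 per concentration). Without S9, cells were exposed for 24 h and sampled at 48 h. With Aroclor 1254-induced rat liver S9, cells were exposed for 3-4 h and sampled at 27-28 h. Read-outs are %MN and %hypodiploid nuclei relative to nucleated events, and relative survival as the nuclei-to-bead ratio versus the 1% DMSO vehicle control (x100).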

CHO-K1 [3] = test: hypodiploid nuclei frequency (% of nucleated events); higher = more hypodiploid events (aneugenic)
Experimental: as §1

[4] = concentration: 4.5 (µM), S9 metabolic activation: with S9, exposure time: 3-4 hours
[5] = concentration: 4.5 (µM), S9 metabolic activation: without S9, exposure time: 24 hours
[6] = concentration: 5.63 (µM), S9 metabolic activation: with S9, exposure time: 3-4 hours
[7] = concentration: 5.63 (µM), S9 metabolic activation: without S9, exposure time: 24 hours
[8] = concentration: 7.04 (µM), S9 metabolic activation: with S9, exposure time: 3-4 hours
[9] = concentration: 7.04 (µM), S9 metabolic activation: without S9, exposure time: 24 hours
[10] = concentration: 8.8 (µM), S9 metabolic activation: with S9, exposure time: 3-4 hours
[11] = concentration: 8.8 (µM), S9 metabolic activation: without S9, exposure time: 24 hours
[12] = concentration: 11 (µM), S9 metabolic activation: with S9, exposure time: 3-4 hours
[13] = concentration: 11 (µM), S9 metabolic activation: without S9, exposure time: 24 hours
[14] = concentration: 13.7 (µM), S9 metabolic activation: with S9, exposure time: 3-4 hours
[15] = concentration: 13.7 (µM), S9 metabolic activation: without S9, exposure time: 24 hours
[16] = concentration: 17.2 (µM), S9 metabolic activation: with S9, exposure time: 3-4 hours
[17] = concentration: 17.2 (µM), S9 metabolic activation: without S9, exposure time: 24 hours
[18] = concentration: 21.5 (µM), S9 metabolic activation: with S9, exposure time: 3-4 hours
[19] = concentration: 21.5 (µM), S9 metabolic activation: without S9, exposure time: 24 hours
[20] = concentration: 26.8 (µM), S9 metabolic activation: with S9, exposure time: 3-4 hours
[21] = concentration: 26.8 (µM), S9 metabolic activation: without S9, exposure time: 24 hours
[22] = concentration: 33.6 (µM), S9 metabolic activation: with S9, exposure time: 3-4 hours
[23] = concentration: 33.6 (µM), S9 metabolic activation: without S9, exposure time: 24 hours
[24] = concentration: 41.9 (µM), S9 metabolic activation: with S9, exposure time: 3-4 hours
[25] = concentration: 41.9 (µM), S9 metabolic activation: without S9, exposure time: 24 hours
[26] = concentration: 52.4 (µM), S9 metabolic activation: with S9, exposure time: 3-4 hours
[27] = concentration: 52.4 (µM), S9 metabolic activation: without S9, exposure time: 24 hours
[28] = concentration: 65.5 (µM), S9 metabolic activation: with S9, exposure time: 3-4 hours
[29] = concentration: 65.5 (µM), S9 metabolic activation: without S9, exposure time: 24 hours
[30] = concentration: 81.9 (µM), S9 metabolic activation: with S9, exposure time: 3-4 hours
[31] = concentration: 81.9 (µM), S9 metabolic activation: without S9, exposure time: 24 hours
[32] = concentration: 102 (µM), S9 metabolic activation: with S9, exposure time: 3-4 hours
[33] = concentration: 102 (µM), S9 metabolic activation: without S9, exposure time: 24 hours
[34] = concentration: 128 (µM), S9 metabolic activation: with S9, exposure time: 3-4 hours
[35] = concentration: 128 (µM), S9 metabolic activation: without S9, exposure time: 24 hours
[36] = concentration: 160 (µM), S9 metabolic activation: with S9, exposure time: 3-4 hours
[37] = concentration: 160 (µM), S9 metabolic activation: without S9, exposure time: 24 hours
[38] = concentration: 200 (µM), S9 metabolic activation: with S9, exposure time: 3-4 hours
[39] = concentration: 200 (µM), S9 metabolic activation: without S9, exposure time: 24 hours
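For hypodiploid nuclei frequency (% of nucleated events) in this document: hypodiploid nuclei gated on a flow cytometer with 488 nm excitation after SYTOX Green staining, cultures at 37 °C, positive controls vinblastine without S9 and cyclophosphamide with S9.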
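For micronucleus frequency (% of nucleated events) in this document: cells lysed with nuclei stained by SYTOX Green, then micronucleus-gated events counted against nucleated events by flow cytometry with 488 nm excitation.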
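For relative survival (nuclei to bead ratio vs DMSO control) in this document: Lysed-cell nuclei stained with SYTOX Green and counted against counting beads by flow cytometry at 488 nm excitation, with vinblastine (no S9) and cyclophosphamide (plus S9) as positive controls.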

For c1ccc2n[nH]nc2c1 [1,2,3-Benzotriazole], the micronucleus frequency (CHO-K1 [1]; [4]) was 0.8%, the micronucleus frequency (CHO-K1 [1]; [5]) was 1% and the micronucleus frequency (CHO-K1 [1]; [6]) was 0.94%. The micronucleus frequency (CHO-K1 [1]; [7]) was 1.3%, the micronucleus frequency (CHO-K1 [1]; [8]) was 0.74% and the micronucleus frequency (CHO-K1 [1]; [9]) was 1.12%. The micronucleus frequency (CHO-K1 [1]; [10]) was 0.8%, the micronucleus frequency (CHO-K1 [1]; [11]) was 1.22% and the micronucleus frequency (CHO-K1 [1]; [12]) was 0.96%. It also gave a micronucleus frequency (CHO-K1 [1]; [13]) of 1.04%, a micronucleus frequency (CHO-K1 [1]; [14]) of 0.76% and a micronucleus frequency (CHO-K1 [1]; [15]) of 1.22%. The micronucleus frequency (CHO-K1 [1]; [16]) was 1.26%, the micronucleus frequency (CHO-K1 [1]; [17]) was 1% and the micronucleus frequency (CHO-K1 [1]; [18]) was 1.22%. For the same molecule, the micronucleus frequency (CHO-K1 [1]; [19]) was 1.12%, the micronucleus frequency (CHO-K1 [1]; [20]) was 1.2% and the micronucleus frequency (CHO-K1 [1]; [21]) was 1.18%. The micronucleus frequency (CHO-K1 [1]; [22]) was 0.82%, the micronucleus frequency (CHO-K1 [1]; [23]) was 0.94% and the micronucleus frequency (CHO-K1 [1]; [24]) was 1.02%. The micronucleus frequency (CHO-K1 [1]; [25]) was 1.18%, the micronucleus frequency (CHO-K1 [1]; [26]) was 1.06% and the micronucleus frequency (CHO-K1 [1]; [27]) was 1.32%. It also gave a micronucleus frequency (CHO-K1 [1]; [28]) of 0.86%, a micronucleus frequency (CHO-K1 [1]; [29]) of 1.38% and a micronucleus frequency (CHO-K1 [1]; [30]) of 0.88%. The micronucleus frequency (CHO-K1 [1]; [31]) was 1.3%, the micronucleus frequency (CHO-K1 [1]; [32]) was 1.16% and the micronucleus frequency (CHO-K1 [1]; [33]) was 1.34%. It also gave a micronucleus frequency (CHO-K1 [1]; [34]) of 1.14%, a micronucleus frequency (CHO-K1 [1]; [35]) of 1.26% and a micronucleus frequency (CHO-K1 [1]; [36]) of 0.98%. For the same molecule, the micronucleus frequency (CHO-K1 [1]; [37]) was 1.46%, the micronucleus frequency (CHO-K1 [1]; [38]) was 1.38% and the micronucleus frequency (CHO-K1 [1]; [39]) was 2.3%. The relative survival (CHO-K1 [2]; [4]) was 76.9, the relative survival (CHO-K1 [2]; [5]) was 85.4 and the relative survival (CHO-K1 [2]; [6]) was 74.3. For the same molecule, the relative survival (CHO-K1 [2]; [7]) was 93.1, the relative survival (CHO-K1 [2]; [8]) was 88.2 and the relative survival (CHO-K1 [2]; [9]) was 112. The relative survival (CHO-K1 [2]; [10]) was 84.2, the relative survival (CHO-K1 [2]; [11]) was 104 and the relative survival (CHO-K1 [2]; [12]) was 94.2. For the same molecule, the relative survival (CHO-K1 [2]; [13]) was 99.2, the relative survival (CHO-K1 [2]; [14]) was 121 and the relative survival (CHO-K1 [2]; [15]) was 104. The relative survival (CHO-K1 [2]; [16]) was 103, the relative survival (CHO-K1 [2]; [17]) was 107 and the relative survival (CHO-K1 [2]; [18]) was 109. For the same molecule, the relative survival (CHO-K1 [2]; [19]) was 94.6, the relative survival (CHO-K1 [2]; [20]) was 89.8 and the relative survival (CHO-K1 [2]; [21]) was 98. The relative survival (CHO-K1 [2]; [22]) was 88.9, the relative survival (CHO-K1 [2]; [23]) was 102 and the relative survival (CHO-K1 [2]; [24]) was 88.4. For the same molecule, the relative survival (CHO-K1 [2]; [25]) was 84.1, the relative survival (CHO-K1 [2]; [26]) was 90.5 and the relative survival (CHO-K1 [2]; [27]) was 91.5. It also gave a relative survival (CHO-K1 [2]; [28]) of 85, a relative survival (CHO-K1 [2]; [29]) of 104 and a relative survival (CHO-K1 [2]; [30]) of 78.8. The relative survival (CHO-K1 [2]; [31]) was 104, the relative survival (CHO-K1 [2]; [32]) was 95.8 and the relative survival (CHO-K1 [2]; [33]) was 85. The relative survival (CHO-K1 [2]; [34]) was 90, the relative survival (CHO-K1 [2]; [35]) was 102 and the relative survival (CHO-K1 [2]; [36]) was 96.5. It also gave a relative survival (CHO-K1 [2]; [37]) of 77.8, a relative survival (CHO-K1 [2]; [38]) of 79.2 and a relative survival (CHO-K1 [2]; [39]) of 74. It also gave a hypodiploid nuclei frequency (CHO-K1 [3]; [4]) of 0.16%, a hypodiploid nuclei frequency (CHO-K1 [3]; [5]) of 0.42% and a hypodiploid nuclei frequency (CHO-K1 [3]; [6]) of 0.42%. It also gave a hypodiploid nuclei frequency (CHO-K1 [3]; [7]) of 0.5%, a hypodiploid nuclei frequency (CHO-K1 [3]; [8]) of 0.22% and a hypodiploid nuclei frequency (CHO-K1 [3]; [9]) of 0.72%. For the same molecule, the hypodiploid nuclei frequency (CHO-K1 [3]; [10]) was 0.18%, the hypodiploid nuclei frequency (CHO-K1 [3]; [11]) was 0.8% and the hypodiploid nuclei frequency (CHO-K1 [3]; [12]) was 0.16%. For the same molecule, the hypodiploid nuclei frequency (CHO-K1 [3]; [13]) was 0.56%, the hypodiploid nuclei frequency (CHO-K1 [3]; [14]) was 0.18% and the hypodiploid nuclei frequency (CHO-K1 [3]; [15]) was 0.62%. It also gave a hypodiploid nuclei frequency (CHO-K1 [3]; [16]) of 0.32%, a hypodiploid nuclei frequency (CHO-K1 [3]; [17]) of 0.54% and a hypodiploid nuclei frequency (CHO-K1 [3]; [18]) of 0.06%. For the same molecule, the hypodiploid nuclei frequency (CHO-K1 [3]; [19]) was 0.68%, the hypodiploid nuclei frequency (CHO-K1 [3]; [20]) was 0.22% and the hypodiploid nuclei frequency (CHO-K1 [3]; [21]) was 0.66%. For the same molecule, the hypodiploid nuclei frequency (CHO-K1 [3]; [22]) was 0.14%, the hypodiploid nuclei frequency (CHO-K1 [3]; [23]) was 0.36% and the hypodiploid nuclei frequency (CHO-K1 [3]; [24]) was 0.26%. The hypodiploid nuclei frequency (CHO-K1 [3]; [25]) was 0.64%, the hypodiploid nuclei frequency (CHO-K1 [3]; [26]) was 0.22% and the hypodiploid nuclei frequency (CHO-K1 [3]; [27]) was 0.62%. It also gave a hypodiploid nuclei frequency (CHO-K1 [3]; [28]) of 0.12%, a hypodiploid nuclei frequency (CHO-K1 [3]; [29]) of 0.82% and a hypodiploid nuclei frequency (CHO-K1 [3]; [30]) of 0.16%. For the same molecule, the hypodiploid nuclei frequency (CHO-K1 [3]; [31]) was 0.76%, the hypodiploid nuclei frequency (CHO-K1 [3]; [32]) was 0.22% and the hypodiploid nuclei frequency (CHO-K1 [3]; [33]) was 1.38%. For the same molecule, the hypodiploid nuclei frequency (CHO-K1 [3]; [34]) was 0.12%, the hypodiploid nuclei frequency (CHO-K1 [3]; [35]) was 0.94% and the hypodiploid nuclei frequency (CHO-K1 [3]; [36]) was 0.16%. It also gave a hypodiploid nuclei frequency (CHO-K1 [3]; [37]) of 1.24%, a hypodiploid nuclei frequency (CHO-K1 [3]; [38]) of 0.18% and a hypodiploid nuclei frequency (CHO-K1 [3]; [39]) of 2%.
